Data published in a compilation of properties of binary mixtures (doi:10.1021/acs.jced.0c00447).
The densities may have been worked out from excess volumes.

Assay: xn = mol fraction of the nth substance listed
Conditions: 100 kPa

CC[n+]1ccn(C)c1.N#C[N-]C#N + OCC(F)(F)F
mass density [kg/m3]
Conditions	x1 = 0.1031	x1 = 0.1957	x1 = 0.2936	x1 = 0.3935	x1 = 0.4905	x1 = 0.5915	x1 = 0.6943	x1 = 0.7956	x1 = 0.8915	x1 = 1
298.15 K	1326.9	1285.8	–	–	1192.7	1169.5	1148.9	1131.1	1116	1100.7
303.15 K	–	1279.4	1243.9	1213.3	1188	–	1144.9	1127.3	1112.5	1097.4
308.15 K	1312.3	1272.9	1238.1	1208.1	1183.2	1160.8	1140.9	1123.6	–	1094.1
313.15 K	1304.9	1266.4	1232.3	1202.9	1178.5	1156.4	1136.9	1119.9	1105.7	–
318.15 K	1297.4	–	–	1197.6	1173.7	1152.1	1132.9	1116.3	1102.2	1087.6
323.15 K	1289.7	1253.1	1220.4	1192.3	1168.9	1147.7	1128.9	1112.6	1098.8	1084.3

OCC(F)(F)F + CC[n+]1ccn(C)c1.N#C[N-]C#N
x2 = 0
Conditions	mass density [kg/m3]
303.15 K	1373.7
313.15 K	1356.1
318.15 K	1347.2
323.15 K	1338
